The text below walks through data of PubChem BioAssay AID1508642 (National Center for Advancing Translational Sciences (NCATS), 2021).

About 200 (0.47%) of roughly 43,000 compounds were called active. Inconclusive results (about 12%) are left out. Calls follow the shape of the dose curve; as a rule, active = well fitted cell-killing curve with a large enough effect; inconclusive = small, poorly fitted or top-dose-only effect, or effect the other way; inactive = flat fitted curve, though single readings scatter. Some of the results follow.
% is scaled to controls: 0 for no effect and ±100 for the full control effect.

The assay can be described thus: Cell viability qHTS assay in S16 Pmp22-F2sN cells. Also: nearly all actives have a fitted effect of over 65% in size. The following applies: S16 Pmp22-F2sN Schwann cells (luciferase reporters placed in the Pmp22 gene) viability, CellTiter-Glo, 24 h; series mostly up to 57.5 µM; activity change, negative = cytotoxicity: at the top concentration. The method in brief: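 Rat S16 Schwann reporter line, 24 h treatment with library compounds delivered at 23 nL per well. Cell viability by CellTiter-Glo luminescence.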
Background: Quantitative high-throughput screening tests each substance at several concentrations.
In the case of `CSc1ncc(C(=O)Nc2cccc(Cl)c2C)c(-c2ccccc2)n1`, the “activity change, negative = cytotoxicity” value is inactive: 2.09%.

Take `CCN(CC)C(=O)C1=C(C)Nc2nc3ccccc3n2C1c1ccc(Cl)cc1` (centres undefined): the “activity change, negative = cytotoxicity” value was inactive: 12.7%.

As to `CSc1ccc(CCNC(=O)c2ccc3c(c2)c(C)c(C)n3Cc2ccc(F)cc2)cc1`, the “activity change, negative = cytotoxicity” value was inactive: -5.98%.

With `CCn1c(CN2CCN(C)CC2)nc2cc(NC(=O)c3cc(OC)c(OC)c(OC)c3)ccc21`, the “activity change, negative = cytotoxicity” value was inactive: -7.09%.

For `CCOc1ccccc1C(=O)NCC(c1ccc(N(C)C)cc1)N1CCCC1` (centres undefined), the “activity change, negative = cytotoxicity” value is inactive: 5.84%.

On to `Cc1ccc(NC(=O)/C(C#N)=C\c2ccc(Cl)cc2Cl)cc1C`, for which the “activity change, negative = cytotoxicity” value was inactive: -1.13%.

Consider `COc1ccc2c(c1)c1c(c(=O)n(CCc3ccccc3)c(=O)n1Cc1ccc(Cl)cc1)n2C`, for which the “activity change, negative = cytotoxicity” value is inactive: -1.71%.

`COc1cc(NC(=O)N2CCN(c3cc(-c4noc(C)n4)ccc3C)CC2)cc(OC)c1OC`: the “activity change, negative = cytotoxicity” value is inactive: 1.68%.

For the molecule `CCOc1ccccc1NC(=O)N1CCN(S(=O)(=O)c2ccc3c(ccn3C)c2)CC1`, the “activity change, negative = cytotoxicity” value is inactive: -2.35%.

Consider `CC(C)c1ccccc1NC(=O)CSc1nnc(COc2ccccc2Cl)o1`, for which the “activity change, negative = cytotoxicity” value was inactive: -12.9%.

For `Cc1ccc(-c2ccc(CCC(=O)O)n2-c2ccc(C(C)C)cc2)cc1`, the “activity change, negative = cytotoxicity” value was inactive: -0.17%.

On to `Nc1c(-c2nc(-c3ccccc3)no2)nnn1CC(=O)Nc1ccccc1`, for which the “activity change, negative = cytotoxicity” value is inactive: 5.31%.

On to `COc1ccccc1CNC(=O)Cn1ncc2c(C)n(Cc3ccccc3Cl)c(C)c2c1=O`, for which the “activity change, negative = cytotoxicity” value is inactive: -1.42%.

With `COC(=O)CSc1nnc2n(-c3ccccc3)c(=O)c3c4c(sc3n12)COC(C(C)C)C4` (centres undefined), the “activity change, negative = cytotoxicity” value was inactive: 3.34%.

In the case of `CCC(=O)N1CCc2cc(S(=O)(=O)N(C)c3cccc(C)c3)ccc21`, the “activity change, negative = cytotoxicity” value is inactive: -7.26%.

Consider `CCOc1ccccc1N(C)C(=O)Cn1nc(Cc2cccnc2)c2ccccc2c1=O`, for which the “activity change, negative = cytotoxicity” value is inactive: 18.1%.

With `CCN(c1cc(C)cc(C)c1)S(=O)(=O)c1nnc(NC(=O)c2cccc(F)c2)s1`, the “activity change, negative = cytotoxicity” value is inactive: -25.4%.

Turning to `CCOc1ccccc1N1CC(c2nc3ccccc3n2CCOc2ccc(C(C)(C)C)cc2)CC1=O` (centres undefined), the “activity change, negative = cytotoxicity” value was inactive: 12.7%.

Turning to `Cc1ccccc1NC(=O)c1sc2nc(N3CCOCC3)c3c(c2c1N)CC(C)(C)OC3`, the “activity change, negative = cytotoxicity” value is inactive: -8.86%.

Regarding `Cc1ccc(-n2ncc(C(=O)N3CCC(c4ccccc4)C3)c2C2CCN(C(=O)OC(C)(C)C)CC2)cc1` (centres undefined), the “activity change, negative = cytotoxicity” value is inactive: -6.57%.

For `CCCCOc1ccc(CNC(=O)c2ccc(NC(=O)N3CCSc4ncccc43)cc2)cc1`, the “activity change, negative = cytotoxicity” value was inactive: -22.5%.

As to `Cc1ccc(C)c(CN2C(=O)c3ccccc3S(=O)c3ccc(C(=O)N(C)Cc4ccccc4)cc32)c1` (centres undefined), the “activity change, negative = cytotoxicity” value was inactive: 4.34%.

As to `COC(=O)CCN(C(=O)c1c(C)oc2ncnc(N3CCOCC3)c12)c1ccccc1`, the “activity change, negative = cytotoxicity” value is inactive: -3.45%.

Consider `Cc1cccc(N2CCN(C(=O)C3CCN(S(=O)(=O)c4ccc5c(c4)oc(=O)n5C)CC3)CC2)c1C`, for which the “activity change, negative = cytotoxicity” value is inactive: -14.8%.

With `Cc1cc(C)c2oc(C(=O)Nc3ccc(S(=O)(=O)N(C)c4ccccc4)cc3)cc(=O)c2c1`, the “activity change, negative = cytotoxicity” value is inactive: 1.58%.

Turning to `O=c1c2c3c(sc2n(Cc2cc(=O)n4ccccc4n2)c(=O)n1-c1ccc(Cl)cc1)CCC3`, the “activity change, negative = cytotoxicity” value is inactive: 0.735%.

As for `O=C(Nc1nc(-c2ccc(Br)cc2)ns1)c1ccccc1F`, the “activity change, negative = cytotoxicity” value was inactive: -0.662%.

Take `CC(=O)N1CCCc2cc(S(=O)(=O)N3CCCC(C(=O)Nc4ccc(C)c(C)c4)C3)ccc21` (centres undefined): the “activity change, negative = cytotoxicity” value is inactive: -4.79%.

For the molecule `COc1cccc(-c2cnc(NCc3ccccc3Cl)n2C)c1`, the “activity change, negative = cytotoxicity” value is inactive: -12.7%.

For the molecule `Cc1ccc(C(=O)Nc2ccc3oc(-c4cccnc4)nc3c2)c(Cl)c1`, the “activity change, negative = cytotoxicity” value is inactive: -3.01%.

Take `Cc1coc2cc3oc(=O)c(CC(=O)NCc4ccccc4)c(C)c3cc12`: the “activity change, negative = cytotoxicity” value was inactive: -8.26%.

`CCOc1ccc2nc(N3CCC(C(=O)Nc4c(C)cccc4C)CC3)sc2c1`: the “activity change, negative = cytotoxicity” value is inactive: -4.21%.

For the molecule `Cc1ccc(C)c(N2CCN(C(=O)c3cc4c(=O)n(Cc5cccs5)ccc4nc3C)CC2)c1`, the “activity change, negative = cytotoxicity” value is inactive: -16.5%.

In the case of `Cc1ccc(S(=O)(=O)Nc2cc3c(cc2Cl)n(C)c(=O)c(=O)n3C)cc1`, the “activity change, negative = cytotoxicity” value is inactive: -3.85%.

`CCOC(=O)c1c(S(=O)(=O)NCC(=O)Nc2cc(C)ccc2OC)c(C)n(C)c1C`: the “activity change, negative = cytotoxicity” value was inactive: -2.58%.

`Cc1ccc(C(=O)OCc2cc(=O)n3nc(-c4cccs4)sc3n2)cc1`: the “activity change, negative = cytotoxicity” value is inactive: 9.41%.

On to `COc1ccc(NC(=O)CSc2nc3ccccc3nc2Cc2ccc(C)cc2)cc1Cl`, for which the “activity change, negative = cytotoxicity” value was inactive: -15.3%.

For the molecule `CCCCCn1c(=O)[nH]c2cc(C(=O)N3CCN(c4cc(Cl)ccc4C)CC3)ccc2c1=O`, the “activity change, negative = cytotoxicity” value is inactive: -0.429%.

`CCOc1ccc(CCn2c3c(c(=O)[nH]c2=O)C(NC(=O)c2ccccc2)(C(F)(F)F)C(=O)N3)cc1OCC` (centres undefined): the “activity change, negative = cytotoxicity” value is inactive: 12.5%.

`CCOC(=O)N1CCC(NC(=O)c2ccc3c(c2)N(Cc2cc(C)ccc2C)C(=O)c2ccccc2S3(=O)=O)CC1`: the “activity change, negative = cytotoxicity” value is inactive: -7.27%.

Turning to `Cc1nc(-c2ccccc2)sc1-c1ccc(SCC(=O)NCc2ccccc2)nn1`, the “activity change, negative = cytotoxicity” value was inactive: 18%.

With `O=C(Cn1cc(SCc2ccccc2F)c2ccccc21)N1CCCCCC1`, the “activity change, negative = cytotoxicity” value is inactive: -13.6%.

In the case of `COc1ccccc1NC(=O)Cn1c(=O)n(Cc2cccs2)c(=O)c2cccnc21`, the “activity change, negative = cytotoxicity” value is inactive: 8.71%.

On to `CCN(CC)c1ccc2cc(-c3nc(-c4ccc(Cl)cc4Cl)cs3)c(=O)oc2c1`, for which the “activity change, negative = cytotoxicity” value is inactive: -3.88%.

`N#Cc1ccccc1NC(=O)CSc1ncn[nH]1`: the “activity change, negative = cytotoxicity” value was inactive: 6.04%.

Consider `COc1ccccc1C(=O)N1CCCCC1CCN1CCOCC1` (centres undefined), for which the “activity change, negative = cytotoxicity” value is inactive: 18.1%.

On to `O=C(Nc1ccc(-c2nc3cc(NC(=O)c4ccccc4F)ccc3o2)cc1)c1ccccc1F`, for which the “activity change, negative = cytotoxicity” value was inactive: 3.86%.

Turning to `Cc1cccc(C(=O)Nc2ccc(C(=O)OCc3cc(=O)n4c5c(sc4n3)CCCC5)cc2)c1`, the “activity change, negative = cytotoxicity” value is inactive: -2.22%.

Consider `CC(=O)c1ccc(NC(=O)c2ccc3c(c2)nnn3C2CCCC2)cc1`, for which the “activity change, negative = cytotoxicity” value was inactive: 15.4%.

Turning to `CCOc1ccc(C(=O)CSc2nc3cc(C(=O)NC4CCCC4)ccc3c(=O)n2CC2CCCO2)cc1` (centres undefined), the “activity change, negative = cytotoxicity” value was inactive: 14.2%.

On to `Cc1ccc(C)c(NC(=O)c2nc(S(C)(=O)=O)ncc2N(Cc2ccc(C(C)(C)C)cc2)Cc2ccco2)c1`, for which the “activity change, negative = cytotoxicity” value was inactive: 0.39%.

For `CN1C(=O)Cc2cc(S(=O)(=O)N3CCN(c4cccc(C(F)(F)F)c4)CC3)ccc21`, the “activity change, negative = cytotoxicity” value is inactive: -14.4%.

For `CCOc1ccc(C(=O)c2cn(CC(=O)Nc3ccc4c(c3)OCCO4)c3ccc(OC)cc3c2=O)cc1`, the “activity change, negative = cytotoxicity” value is inactive: 22%.

`O=C(NCc1ccccc1)c1cc2sccc2n1Cc1ccc(F)cc1`: the “activity change, negative = cytotoxicity” value was inactive: -16.5%.

On to `Cn1c(=O)c2c(nc(Oc3ccc(F)cc3)n2Cc2ccc(F)cc2)n(C)c1=O`, for which the “activity change, negative = cytotoxicity” value was inactive: 8.88%.

As for `Cc1ccccc1CNC(=O)Cn1ccc2cc(S(=O)(=O)N3CCCCC3)ccc21`, the “activity change, negative = cytotoxicity” value was inactive: 1.34%.

Turning to `COc1ccccc1NC(=O)c1sc2nc(C)c(C(=O)Nc3ccc(C)cc3C)c(-c3ccc(Br)cc3)c2c1N`, the “activity change, negative = cytotoxicity” value was inactive: 19.9%.

Regarding `COc1ccccc1C(=O)NCc1nnnn1-c1ccc(C)c(C)c1`, the “activity change, negative = cytotoxicity” value is inactive: 7.15%.

In the case of `COc1ccc(-c2csc(-c3nc(-c4ccc(Br)s4)cs3)n2)cc1F`, the “activity change, negative = cytotoxicity” value is inactive: -1.98%.
